Data from PMC5836133.
This is one part of the list. At the low end of the ranking, values are background and their order means little.

system: T1, GST-NbGlk1(82-244); experiment: protein-binding microarray; details: NbGlk1 is a Golden2-like transcription factor of Nicotiana benthamiana; high values mean tight binding; most listed sequences are background and not binding sites; double strand, one strand shown;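 note: rank-based score ranging −0.5 to +0.5 with E above 0.45 taken as significant binding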
T1 sequence: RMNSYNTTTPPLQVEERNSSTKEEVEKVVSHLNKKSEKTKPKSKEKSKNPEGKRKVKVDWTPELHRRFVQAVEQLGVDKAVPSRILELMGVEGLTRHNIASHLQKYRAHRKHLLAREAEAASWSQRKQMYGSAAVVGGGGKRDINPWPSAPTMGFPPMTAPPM

Sequence | binding signal
ATTCAGCA | 0.107 E-score
ATCATCGG | 0.138 E-score
ACGGCTTC | -0.336 E-score
AGGGGCCC | -0.382 E-score
AGATGTTA | 0.119 E-score
AAAAGCCG | -0.133 E-score
ACATAGTG | -0.0763 E-score
AGACAGAG | -0.0869 E-score
AGGGAACT | -0.173 E-score
AGATTGGG | 0.186 E-score
AGAGCACT | -0.125 E-score
AGGACAAG | -0.0944 E-score
AACGCTAT | -0.0192 E-score
AGTAGGTG | -0.175 E-score
AAATCTCG | 0.463 E-score
AGTCGTCC | -0.266 E-score
AGACCAAC | -0.126 E-score
AGAACTCG | -0.143 E-score
ACTTAAAC | 0.0645 E-score
AGCCCTAC | -0.193 E-score
ACCTCCGT | -0.255 E-score
ACGAGAGC | -0.0209 E-score
AGCGCCCC | -0.253 E-score
AGTTTTAA | -0.142 E-score
AGTAGCCC | -0.232 E-score

Sequence | binding signal
ACAATCCA | 0.333 E-score
AACAGATT | 0.426 E-score
AACTTCCT | -0.11 E-score
AATCTCTC | 0.368 E-score
ATTTAAGG | -0.000788 E-score
ACAGTATC | 0.304 E-score
ACCATTAC | 0.0188 E-score
ACCACAAA | -0.0279 E-score
AACGCTCC | -0.052 E-score
AACTACGG | -0.083 E-score
AGATCAAA | 0.133 E-score
ACATGAAA | 0.129 E-score
CAAGACTA | -0.0256 E-score
AAGGCCAT | -0.0684 E-score
ATACTGGG | -0.0274 E-score
ATGGCCAT | -0.128 E-score
AAGGCGAC | -0.283 E-score
ACTTGGTC | -0.155 E-score
ACGCAAAT | 0.176 E-score
AATCAAGG | 0.258 E-score
ACACCACC | -0.0727 E-score
AGATAACG | 0.119 E-score
AGAGGGCT | -0.282 E-score
AAGAATGT | 0.00487 E-score
AAAGCACT | -0.163 E-score

Sequence | binding signal
AGCACTTC | -0.114 E-score
AAAAATCC | 0.437 E-score
ATGCAATG | -0.0993 E-score
ACGTTGTC | -0.129 E-score
ATCAGACA | 0.136 E-score
AGGCCCCA | -0.334 E-score
ATGTCGTG | -0.0169 E-score
CAAAGGGA | -0.1 E-score
AAGCGGCG | -0.129 E-score
ACAAGATG | -0.0534 E-score
AAGAAAGT | 0.0744 E-score
ACACGCCA | -0.211 E-score
AGAATTAC | 0.23 E-score
AGGACAGC | -0.14 E-score
ATCAGACG | -0.00462 E-score
ACGCCCCA | -0.175 E-score
AGAAAAGA | 0.164 E-score
CAGCATCC | -0.0849 E-score
ACATGCAA | 0.141 E-score
AACAACAC | -0.146 E-score
ACGTGAAC | 0.0124 E-score
AGGAGACC | -0.3 E-score
CACCATCG | -0.144 E-score
ATACGAAA | 0.276 E-score
AACCCCGA | -0.0991 E-score

Sequence | binding signal
ACCTATCA | -0.0396 E-score
ACTAAAAC | 0.0428 E-score
ACTATTCC | 0.0219 E-score
ATATAATG | 0.147 E-score
ACCCTTAC | -0.153 E-score
ACAAGGCA | -0.15 E-score
AACCACGT | -0.0832 E-score
AAATCGAA | 0.329 E-score
AGGTTGCC | -0.271 E-score
ACCCATAA | 0.104 E-score
AGGTCCTG | -0.238 E-score
CAAATGCG | -0.00184 E-score
ACGCAGCA | -0.125 E-score
ACCATTCG | -0.131 E-score
AAACGAGT | -0.0518 E-score
AATAAGGC | 0.126 E-score
ACTCCTTG | -0.17 E-score
ACCGGAGG | -0.22 E-score
ACAGATGG | -0.121 E-score
CAAGAAAC | -0.0207 E-score
AGCAAAAG | -0.0263 E-score
AGCTTATA | 0.0323 E-score
AACCCAGT | -0.165 E-score
AATGTTGA | 0.0497 E-score
AATGGCTG | -0.229 E-score

Sequence | binding signal
AAACGCGA | 0.106 E-score
CACCCCCG | -0.143 E-score
CACCAAGA | 0.0698 E-score
AACCCTGG | -0.258 E-score
AGCTCCAC | -0.228 E-score
AAACTCCG | -0.155 E-score
ATACACTC | 0.0183 E-score
AATGCTTA | -0.0563 E-score
ATATGGGG | 0.0536 E-score
ACCACTTA | -0.0325 E-score
CACTACGC | -0.166 E-score
AGACGCGC | -0.155 E-score
CAGCCAAG | 0.00384 E-score
ATACCTGC | 0.0322 E-score
ACCAGTAA | -0.0209 E-score
CAACCGGC | -0.174 E-score
AGCTTCTC | -0.145 E-score
AAGAGACG | -0.246 E-score
AGCATTCC | -0.186 E-score
ATCGCCGA | 0.202 E-score
ATTAAAGG | -0.0563 E-score
AGGGTTCG | -0.312 E-score
ACGAGGTG | -0.1 E-score
AAGGGCGC | -0.164 E-score
ACTACGTC | -0.0994 E-score

Sequence | binding signal
AACAAGCT | -0.147 E-score
ATGTCCAC | 0.0171 E-score
AGTAGATG | 0.0733 E-score
CACGAAGC | -0.154 E-score
AATATACT | 0.222 E-score
AAGTGGAG | -0.22 E-score
ACGTCAGT | -0.199 E-score
AGGAAGGG | -0.214 E-score
ACGAGGGC | -0.247 E-score
AGGTTTAC | -0.163 E-score
AGAAGCGC | -0.197 E-score
AAAGTCGA | -0.000562 E-score
AGTGGGGA | -0.154 E-score
AATCTTCG | 0.404 E-score
ACTAATCT | 0.0571 E-score
AGCCAGTG | -0.218 E-score
AGCGTATG | 0.0231 E-score
AGACTCGA | -0.174 E-score
ATGCTAAC | -0.0521 E-score
AAGGCTGT | -0.295 E-score
ACGCTGCT | -0.0365 E-score
ACGTAAGA | 0.08 E-score
ACCAACGA | -0.0707 E-score
ACACGAAA | 0.16 E-score
AGAAGGGA | -0.0546 E-score

Sequence | binding signal
ATCACGTG | 0.196 E-score
ATTGCGGG | 0.26 E-score
AACAAGGA | 0.00345 E-score
ATCGCGTC | 0.285 E-score
ATCTCGGG | 0.242 E-score
AAGCTTGC | -0.0998 E-score
ACAGCTTG | -0.215 E-score
ACCCTTCG | -0.213 E-score
AATATCGA | 0.326 E-score
AAGCTCCA | -0.203 E-score
AGGTTCTA | -0.116 E-score
AGACTCAT | -0.0737 E-score
ACCCACAA | -0.0311 E-score
ACGATGAC | -0.0642 E-score
AAATCGTT | 0.248 E-score
ATAAGGGG | -0.164 E-score
AGAGTACA | -0.0623 E-score
ATTCATAA | 0.155 E-score
AGTCAATG | -0.222 E-score
AAAACCTC | -0.111 E-score
ACCAAAAT | 0.245 E-score
AGGCCAAT | -0.105 E-score
